Article PMC4336329 (PLoS ONE, 2015)
Among all 310,000 compounds or so, about 14,000 (4.5%) showed an effect of 50% or more. Effects have a minus sign here. Some of the results follow.

molecular target: human ether-à-go-go-related gene (hERG) potassium channel (human, UniProt Q12809); assay: primary screen, population patch clamp on CHO cells stably expressing hERG
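Also: peak tail current of the secondary pulse compared with the same well before compound.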

Chain of human ether-à-go-go-related gene (hERG) potassium channel (Q12809 whole entry, looked up): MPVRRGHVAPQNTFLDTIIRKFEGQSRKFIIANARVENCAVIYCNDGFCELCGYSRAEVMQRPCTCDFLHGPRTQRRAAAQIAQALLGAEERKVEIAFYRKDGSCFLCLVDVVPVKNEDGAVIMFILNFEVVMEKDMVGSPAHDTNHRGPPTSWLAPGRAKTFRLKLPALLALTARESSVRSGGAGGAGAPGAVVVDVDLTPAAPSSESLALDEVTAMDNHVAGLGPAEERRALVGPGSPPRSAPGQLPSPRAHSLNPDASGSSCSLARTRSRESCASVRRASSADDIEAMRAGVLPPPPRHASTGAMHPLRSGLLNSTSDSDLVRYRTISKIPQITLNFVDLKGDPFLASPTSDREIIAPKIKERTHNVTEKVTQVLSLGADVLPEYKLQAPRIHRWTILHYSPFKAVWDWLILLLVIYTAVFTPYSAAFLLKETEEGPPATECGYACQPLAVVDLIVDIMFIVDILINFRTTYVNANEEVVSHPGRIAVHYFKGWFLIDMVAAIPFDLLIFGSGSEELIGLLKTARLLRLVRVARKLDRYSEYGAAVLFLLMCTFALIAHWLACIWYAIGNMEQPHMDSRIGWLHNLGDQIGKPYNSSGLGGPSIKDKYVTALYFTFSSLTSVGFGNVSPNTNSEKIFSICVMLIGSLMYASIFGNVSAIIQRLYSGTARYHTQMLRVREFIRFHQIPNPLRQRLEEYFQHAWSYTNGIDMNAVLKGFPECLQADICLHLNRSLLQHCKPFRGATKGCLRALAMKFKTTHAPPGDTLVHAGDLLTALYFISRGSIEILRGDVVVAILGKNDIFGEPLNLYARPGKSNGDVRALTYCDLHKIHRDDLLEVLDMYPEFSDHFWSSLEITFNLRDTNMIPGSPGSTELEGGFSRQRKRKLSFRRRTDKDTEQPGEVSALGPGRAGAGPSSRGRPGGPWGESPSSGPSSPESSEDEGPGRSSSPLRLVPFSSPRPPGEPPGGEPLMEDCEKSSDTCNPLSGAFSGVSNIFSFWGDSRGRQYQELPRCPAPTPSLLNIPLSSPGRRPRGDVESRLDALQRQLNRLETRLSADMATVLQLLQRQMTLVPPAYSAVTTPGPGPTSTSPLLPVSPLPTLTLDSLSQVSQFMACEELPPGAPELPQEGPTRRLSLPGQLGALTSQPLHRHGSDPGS

SMILES | hERG current change (%, negative = inhibition) at 10uM [%]
CC(C)c1ccc(N(C(=O)CNC(=O)c2ccco2)C(C(=O)NC2CCCC2)c2cccnc2)cc1 (stereo not drawn) | -5.02
FC(F)(F)c1cccc(N2CCN(C(=S)NC3CCCCC3)CC2)c1 | -0.288
CSC1=N/C(=C\c2ccccc2F)C(=O)S1 | -3.24
CC1CN(C2CCN(C(=O)COc3ccccc3)CC2)CC(C)O1 (stereo not drawn) | 3.57
CCCCC1CCC(C(=O)N(CCCC)c2c(N)n(CCCC)c(=O)[nH]c2=O)CC1 (stereo not drawn) | -2.89
CCn1c2ccccc2c2cc(CC(N)=O)ccc21 | 5.3
C1CN(c2nc3nonc3n3nnnc23)CCO1 | 6.05
COc1ccc(C2=NN(C(=O)C(O)c3ccccc3)C(O)(C(F)(F)F)C2)cc1 (stereo not drawn) | -0.328
COC(=O)C1CCN(Cc2c(C(=O)N3C[C@@H](C)O[C@@H](C)C3)nc3ccc(Cl)cn23)CC1 | 21.1
COc1c([N+](=O)[O-])c(=O)oc2ccccc12 | 15.4
Cc1cccc(-c2sc(Nc3ccccc3)n[n+]2-c2ccc(F)cc2)c1.[Cl-] | 21.7
Cc1ccc(NC(=O)c2cc(S(=O)(=O)N3CCCCC3)cs2)cc1 | 8.89
Cc1ccc(N(C)C(=O)N2CCN(S(=O)(=O)c3ccc(C)cc3)CC2)cc1 | -33.3
Cc1ccc(-c2nc3ccc(Cl)cc3c(=O)n2O)cc1 | 21.9
Cc1cc(C(=O)CSc2nnc3c(Cl)cc(Cl)cn23)c(C)n1C | 10.3
O=c1[nH]nc(Cc2ncc(C(F)(F)F)cc2Cl)c2ccccc12 | 8.74
NC(=O)C1(N2CCCCC2)CCN(C2CC(=O)NC2=O)CC1 (stereo not drawn) | -29.5
CCN1CCN(c2cc(C)c3cc(NC(=O)c4ccc(C)c(C)c4)ccc3n2)CC1 | -43.3
CC1CC(C(F)(F)F)n2ncc(C(=O)O)c2N1 (stereo not drawn) | 11.5
Cc1cccc(N2CCN(S(=O)(=O)c3ccc4c(c3)CC(C)N4C(=O)C3CC3)CC2)c1C (stereo not drawn) | 8.2
CCOc1cc2c(cc1OCC)-n1cccc1C(c1ccc(OC)cc1)NC2.Cl (stereo not drawn) | -48.1
COC(=O)c1cccc(NC(=O)CCc2cc(OC)c(OC)c(OC)c2)c1 | -0.185

SMILES | hERG current change (%, negative = inhibition) at 10uM [%]
O=C(Nc1cc(C(=O)N2CCOCC2)cc(C(=O)N2CCOCC2)c1)c1cc(F)c(F)cc1Cl | 18
NC1=NC(=O)/C(=C/c2cc(Br)c(O)c(Br)c2)S1 | 16.8
CC(C)(C)NC(=O)C(c1ccccc1)N(C(=O)c1csnn1)C1CC1 (stereo not drawn) | 0.809
CCN(CC)C(=O)c1ccc(-c2nnc(Nc3ccc(C(=O)N(C)C)cc3)c3ccccc23)cc1 | 0.298
O=C(O)CCCC(=O)Nc1ccccc1Br | 13.3
CCCCOCCCNC(=O)CC(C)c1ccccc1 (stereo not drawn) | 10.1
Cc1c(C=O)c2ccccc2n1CC(=O)NCc1ccccc1 | 23.1
CCOC(=O)CSc1nnc(CNC(=O)c2cccs2)n1-c1cccc(C)c1 | -11.7
COc1ccc(OCCC(=O)N2CCN(C)CC2)cc1.Cl | 17.3
O=C(COc1ccccc1)Nc1nccs1 | -13.5
O=C(OCC(=O)N1CCOCC1)c1ccccc1Br | 20.8
CCOC(=O)C1CCCN(C(=O)Cc2c(F)cccc2Cl)C1 (stereo not drawn) | 4.12
CCC(=O)C1CCCN(C(=O)c2ccc(OC3CCN(C(=O)c4cccnc4)CC3)cc2)C1 (stereo not drawn) | 13.8
C=CCn1c(CC(C)(C)C)nc2ccccc21 | 5.31
O=C(COC(=O)c1ccco1)NC(c1ccccc1)c1ccccc1 | 3.56
Clc1ccc(Cl)c(OCCCCNCc2ccccc2)c1.O=C(O)C(=O)O | -71.5
CCCCn1nc(C(=O)NNC(=O)c2ccncc2)c2ccccc2c1=O | -15
O=CNCCCc1nc2ccccc2n1Cc1cccc2ccccc12 | -43
O=C(NC1(Cc2ccccc2)CCN(Cc2ccc(-c3ccccc3)cc2)C1=O)c1ccccc1 (stereo not drawn) | 11
CCC(C(=O)OC)n1cnc2c(nnn2-c2cccc(OC)c2)c1=O (stereo not drawn) | 2.24
COc1ccc(Cl)cc1NC(=S)NCc1ccccn1 | 9
CCCc1ccc(OCCNC(=O)CC)cc1 | -10.9

SMILES | hERG current change (%, negative = inhibition) at 10uM [%]
CC(C)c1csc(CN2CCN(Cc3ccc(F)c(F)c3)C(CCO)C2)n1 (stereo not drawn) | -19.3
Cc1[nH]n(-c2ccccc2)c(=O)c1/C=N/NC(=O)c1cccc(F)c1 | 20.1
COc1ccc(Br)cc1C(=O)N/N=C/c1ccc([N+](=O)[O-])cc1 | 3
COc1cccc(C2/C(=C(/O)c3ccc4c(c3)CC(C)O4)C(=O)C(=O)N2c2nnc(C)s2)c1 (stereo not drawn) | 17
CCOc1ccc(CN2CCCC(C(=O)c3ccccc3OC)C2)cc1 (stereo not drawn) | -82
Cn1c(CSCc2ccccc2)nnc1SCC(=O)Nc1nccs1 | -16.1
CCC/C=C(\CCC)C(NC(=O)OCC(C)C)c1ccc(C(=O)OC)cc1 (stereo not drawn) | 7.89
O=C(C1=C[C@@H](c2coc3ccccc3c2=O)C[C@@H](OCc2ccc(CO)cc2)O1)N1CCOCC1 | -24.7
COc1cccc(/C=N/NC(N)=S)c1OCc1ccccc1Cl | 7.81
NC(=O)N/N=C/c1ccccc1OCC(=O)NCc1ccccc1 | -3.76
O=C(O)CCn1c(=O)[nH]c2ccccc2c1=O | 12.4
COc1ccc(Br)cc1CN(C)C(=O)c1ccccc1OCc1c(C)noc1C | -28.7
O=C(Nc1ccc(OC(F)F)cc1)c1ccccn1 | 6.62
CCOc1ccccc1CN1CCNC(=O)C1CC(=O)NCc1ccccn1 (stereo not drawn) | -42.3
CC(=O)Nc1ccc(/C=C/c2nc3ccccc3[nH]c2=O)cc1 | 13
CCn1c(=O)cc(SCC(=O)N2CCN(c3ccccc3F)CC2)c2ccccc21 | -21.7
O=C(Nc1ccccc1O)c1ccc2c(c1)C(=O)N(c1ccccc1)C2=O | 9.77
Cc1ccc(C(=O)OCC(=O)Nc2sccc2C(N)=O)cc1NC(=O)c1ccco1 | 14.8
NC(=O)c1ccsc1NC(=O)c1ccc(S(=O)(=O)N2CCCC2)cc1 | -7.59
CC1CN(C(=O)C(Sc2ccccc2)c2ccccc2)CC(C)O1 (stereo not drawn) | -15.4
CCOc1ccc(N2C(=O)CCC2=O)cc1 | 10.8
C=CCn1c(O)c(C(C)=NCCCN2CCOCC2)c(=O)[nH]c1=O | 3.33

SMILES | hERG current change (%, negative = inhibition) at 10uM [%]
CSc1ccc(CN2CCN(C(=O)CC(C)C)CC2)cc1 | 9.42
O=C(CSc1nnnn1-c1ccccc1)c1ccco1 | -18.8
CCOC(=O)N1CCC(NC(=O)CSCc2cnn(-c3ccccc3)c2-n2cccc2)CC1 | -16.6
COc1cccc(C2c3c(-c4cc(Cl)c(C)cc4O)n[nH]c3C(=O)N2Cc2cccnc2)c1 (stereo not drawn) | -0.616
COC(=O)c1cn(CC(=O)Nc2ccccc2C)c2ccccc12 | 22.5
CSc1cccc(NC(=O)C2C3C=CC4(O3)C2C(=O)N(CCN2CCOCC2)C4C(=O)NC2CCCCC2)c1 (stereo not drawn) | 9.21
COc1ccc(-c2c(-c3cc(OC)cc(OC)c3)n(C)c3ccc(-c4ccc(SC)cc4)cc23)cc1 | 18.7
NC(=O)COc1ccc(/C=N\NC(=O)c2ccc(-c3ccccc3)cc2)cc1 | 6.9
CCN(CC)C(=O)Cn1c(=O)n(Cc2ccc(F)cc2)c(=O)c2sccc21 | 12
COc1cc(C(c2sc3nc(C)nn3c2O)N2CC(C)OC(C)C2)cc(OC)c1OC (stereo not drawn) | 7.58
CCn1ncc(Cl)c1C(=O)Nc1ccncc1 | -5.7
Cc1noc(C)c1COc1ccc(C(=O)OCC(=O)N2CC3(C)CC2CC(C)(C)C3)cc1 (stereo not drawn) | -6.44
Cc1ccc(C(C(=O)NC(C)(C)C)N(Cc2ccc3c(c2)OCO3)C(=O)c2ccc(CN3CCOCC3)o2)o1 (stereo not drawn) | -0.88
CN(CC(=O)Nc1ccc(Cl)c(C(F)(F)F)c1)C(=O)Cc1c[nH]c2ccccc12 | 2.59
COc1cccc(-n2nnc3c(=O)n(CC(=O)Nc4ccc(C)cc4)cnc32)c1 | 6.39
COc1ccc(NS(=O)(=O)c2cc(NC(=O)c3cccs3)ccc2N2CCOCC2)cc1 | -4.22
Cc1nn(-c2cccc3cccnc23)c(=O)c2ccccc12 | 17.8
COc1cc(C(=O)Oc2ccccc2/C=N/NC(=O)c2ccc(C)cc2)cc(OC)c1OC | 20.7
NC(=O)CC[C@H](NC(=O)c1ccc(F)cc1)C(=O)OCC(=O)NCc1ccc(F)cc1 | 19.4
CCC1CCCCN1CCCNC(=O)Cn1cnc2sc(C)c(S(=O)(=O)N3CC(C)CC(C)C3)c2c1=O (stereo not drawn) | 4.72
COc1ccccc1C(=O)NNS(=O)(=O)c1ccc(F)cc1 | 8.47
